# Hit rate of the full screen: of about 48,000 compounds, about 450 (0.94%) were called active. This list was built around the results that the source calls inconclusive (neither active nor inactive); the mix of calls is not that of the screen. Calls follow the shape of the dose curve; as a rule, active = well fitted inhibition curve with a large enough effect; inconclusive = small, poorly fitted or top-dose-only effect; inactive = no such curve, though single readings can be large or run the other way. Potencies beside an inconclusive call are fits to weak or partial responses and may not hold up.
# Experiment: Primary qHTS for Identification of Small Molecule Inhibitors of Huntingtin Promoter Activity; also: nearly all actives have a fitted effect of over 50% in size
# Conditions: HEK293 HTT promoter firefly luciferase reporter (activity 0% = vehicle and -100% = no light), 24 h; activity change, negative = inhibition: at 57.5 µM (top of the series)
# Excerpt: Assay Provider: Russell L. Margolis M.D.
# Department Neurology, Johns Hopkins University School of Medicine, Baltimore, MD
# Huntington's Disease (HD) is a neurodegenerative disorder caused by a CAG repeat expansion in exon 1 of huntingtin (HTT). While there are currently no disease-modifying treatments for HD, recent efforts have focused on development of nucleotide-based therapeutics to lower HTT expression. As an alternative to siRNA or oligonucleotide methods, we hypothesized that suppression of HTT expression might be accomplished by small molecules that either (1) directly decrease HTT expression by suppressing HTT promoter activity or (2) indirectly decrease HTT expression by increasing the promoter activity of HTT-AS, the gene antisense to HTT that appears to inhibit expression of HTT.
# We developed and employed a high throughput screen for modifiers of HTT and HTT-AS promoter activity using luminescent reporter HEK293 cells; of the 52,041 compounds tested, we identified 898 replicable hits. We used a rigorous stepwise approach to assess compound toxicity and the capacity of the compounds to specifically lower huntingtin protein in 5 different cell lines, including HEK293 cells, HD lymphoblastoid cells, mouse primary neurons, HD iPSCs differentiated into cortical-like neurons, and HD hESCs. We found no compounds which were able to lower huntingtin without lowering cell viability in all assays, though the potential efficacy of a few compounds at non-toxic doses could not be excluded.
# SEQUENCE No. (1, 2, 3, etc.); […] (e.g., Cells, Incubation, Reagent, etc.); VALUE and DESCRIPTION.
# 1; Reagent; 4 uL; 2,500 Hek293 luciferase reporter cells per wells
# 3; Compound; 23 nL; Control inhibitor / compound library
# 5; Reagent; 2.5 uL; Firefly Luc reagent; Dual-Glo Luciferase Reporter Assay System (Promega)
# 6; Time; 10 min; room temperature incubation
# 7; Detection; Luminescence; FLuc
# NOTES (numbers refer to sequence above)
# 1; High-throughput screening, measuring luminescence from a Hek293 luciferase reporter, was performed in 1,536 well white-walled tissue-culture treated plates. 2,500 cells were plated in 4 µL of Opti-MEM per well using a Multidrop Combi Reagent Dispenser (ThermoFisher).
# 2; Assay plates were cultured for 24 hours.
# 3; Control inhibitor (PTC124; final concentration of 50 uM) and compound library (at final concentrations of 460 nM - 57.5 uM) were added to the assay plate using the Kalypsis Pintool Robotic System equipped with 1536 pinheads.
# 4; Cells were then incubated for 24 hours at 37 degrees C prior to luminescence measurements.
# 5; In all cases, luminescence was measured using the Dual-Glo Luciferase Reporter Assay System (Promega) following the manufacturer's instructions.
# 6; Room temperature incubation.
# 7; Luminescence signal was obtained using the PerkinElmer ViewLux plate reader. Results were normalized to vehicle control (0% activity) and zero RLU (-100% activity).
# Potency is read from the fitted curve at half-maximal effect; tags tell the direction and shape of the fitted curve.
Structure (SMILES),"activity change, negative = inhibition",Potency
Cc1ccc2nc(-c3ccc(C)c(NC(=O)CSc4ccc(Cl)cc4)c3)oc2c1,inactive: 14.6%,–
Cc1ccc(Cl)cc1N1CCN(C(=O)Cn2cnc3nc4c(cc3c2=O)CCCC4)CC1,–,"inconclusive: 14.1 µM [inhibitor, partial curve, poor fit]"
COc1ccc2c(c1)CC[C@@H](CN(C)CC(=O)O)[C@H]2c1ccccc1,–,"inconclusive: 6.11 µM [inhibitor, partial curve]"
Cc1ccc(NC(=O)CCNS(=O)(=O)c2cccc3nsnc23)cc1,inactive: -1.4%,–
CN(CC(=O)Nc1ccc(F)cc1F)S(=O)(=O)c1ccc(C(=O)N2CCOCC2)s1,–,"inconclusive: 12.6 µM [inhibitor, partial curve, poor fit]"
CC(=O)N1CCCc2cc(S(=O)(=O)N3CCN(c4ccc(F)cc4)CC3)ccc21,–,"inconclusive: 31.6 µM [inhibitor, partial curve, poor fit]"
COc1ccc(NC(=O)c2noc3c2CSc2ccccc2-3)cc1Cl,inactive: 3.4%,–
O=C(Cn1nc(Cc2cccnc2)c2ccccc2c1=O)Nc1cccc(C(F)(F)F)c1,–,"inconclusive: 20 µM [inhibitor, single point]"
CCc1ccc(NC(=O)CN2C(=O)C(c3ccccc3)=NC23CCCCCC3)cc1,–,"inconclusive: 22.4 µM [inhibitor, single point]"
CCCCc1ccc(NC(=O)COc2cccc3c(=O)n(C)ccc23)cc1,–,"inconclusive: 15.8 µM [inhibitor, partial curve, poor fit]"
Cc1ccc2nc(CSc3nnc(NC(=O)COc4ccccc4)s3)cc(=O)n2c1,–,"inconclusive: 39.8 µM [inhibitor, single point]"
Cc1ccc(C(CC(=O)Nc2cc(C)cc(C)c2)N2Cc3ccccc3C2=O)cc1 (stereo not given),–,"inconclusive: 31.6 µM [inhibitor, single point]"
Cc1ccc(CCNC(=O)c2cc3c(s2)-c2ccccc2OC3)cc1,–,"inconclusive: 39.8 µM [inhibitor, single point]"
CC1CCN(S(=O)(=O)c2ccc3c(c2)N(CC(=O)NCc2ccccc2Cl)C(=O)CS3)CC1,–,"inconclusive: 39.8 µM [inhibitor, single point]"
O=C(Nc1cccc(C(F)(F)F)c1)C1CCCN(S(=O)(=O)c2cccc3nsnc23)C1 (stereo not given),–,"inconclusive: 35.5 µM [inhibitor, partial curve]"
O=S(=O)(Nc1ccc(F)c(C(F)(F)F)c1)c1ccc(N2CCCCS2(=O)=O)cc1,–,"inconclusive: 17.8 µM [inhibitor, partial curve, poor fit]"
CC(C)CCN1C(=O)N(c2ccccc2)C(=O)C1CC(=O)Nc1ccc(Cl)cc1 (stereo not given),–,"inconclusive: 17.8 µM [inhibitor, single point]"
Cc1ccc(Sc2ccc(N3CCCC(C(=O)Nc4ccc(Cl)cc4)C3)nn2)cc1 (stereo not given),–,"inconclusive: 35.5 µM [inhibitor, single point]"
CCOc1c(CC2C(=O)Nc3ccc(Br)cc32)cccc1OC (stereo not given),–,"inconclusive: 20 µM [inhibitor, partial curve, poor fit]"
CC1CCCCN1C(=O)CSc1nc2ccccc2nc1Cc1ccccc1 (stereo not given),–,"inconclusive: 35.5 µM [inhibitor, single point]"
CCOc1ccc(N2C(=O)c3[nH]nc(-c4ccccc4)c3C2c2ccc(O)c(OC)c2)cc1 (stereo not given),–,"inconclusive: 39.8 µM [inhibitor, single point]"
COc1ccc(CNC(=O)c2ccc3c(c2)N=C(C)c2c(C)ccc(C)c2S3)cc1,–,"inconclusive: 28.2 µM [inhibitor, partial curve]"
CCN(CC)c1ccc(NC(=O)CN2CCN(S(=O)(=O)c3ccc(C(C)C)cc3)CC2)cc1,–,"inconclusive: 39.8 µM [inhibitor, single point]"
CCOC(=O)c1c(S(=O)(=O)N2CCC(C(=O)Nc3ccc(C)cn3)CC2)c(C)n(C)c1C,–,"inconclusive: 17.8 µM [inhibitor, single point]"
CNC(=O)c1ccc(Nc2cc(Nc3ccccc3S(=O)(=O)C(C)C)c3cc[nH]c3n2)nc1,inactive: -16.6%,–
COc1cc(-c2ccno2)ccc1S(=O)(=O)N1CCN(c2cccc(Cl)c2)CC1,–,"inconclusive: 22.4 µM [inhibitor, single point]"
Cc1ccc(CNC(=O)c2oc3ccc(S(=O)(=O)N4CCCC(C)C4)cc3c2C)cc1 (stereo not given),–,"inconclusive: 28.2 µM [inhibitor, partial curve, poor fit]"
Cc1cc(Cl)ccc1OCCCC(=O)NO,–,"inconclusive: 15.3 µM [inhibitor, partial curve]"
NS(=O)(=O)c1ccc(NC(=O)c2cc(-c3cccs3)nc3ccccc23)cc1,–,"inconclusive: 39.8 µM [inhibitor, single point]"
COc1ccc(N2CCN(c3ncnc4c3nc3n4CCCCC3)CC2)cc1,–,"inconclusive: 14.1 µM [inhibitor, partial curve, poor fit]"
